Test results from PMC4336329 (PLoS ONE, 2015).
Out of some 310,000 compounds screened, about 14,000 (4.5%) showed an effect of 50% or more. The effect is printed as a negative number. The list shows a part of the results.

target: human ether-à-go-go-related gene (hERG) potassium channel (human, UniProt Q12809); experiment: primary screen, population patch clamp on CHO cells stably expressing hERG
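Further: peak tail current of the secondary pulse compared with the same well before compound.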

human ether-à-go-go-related gene (hERG) potassium channel, sequence (Q12809 whole entry, looked up): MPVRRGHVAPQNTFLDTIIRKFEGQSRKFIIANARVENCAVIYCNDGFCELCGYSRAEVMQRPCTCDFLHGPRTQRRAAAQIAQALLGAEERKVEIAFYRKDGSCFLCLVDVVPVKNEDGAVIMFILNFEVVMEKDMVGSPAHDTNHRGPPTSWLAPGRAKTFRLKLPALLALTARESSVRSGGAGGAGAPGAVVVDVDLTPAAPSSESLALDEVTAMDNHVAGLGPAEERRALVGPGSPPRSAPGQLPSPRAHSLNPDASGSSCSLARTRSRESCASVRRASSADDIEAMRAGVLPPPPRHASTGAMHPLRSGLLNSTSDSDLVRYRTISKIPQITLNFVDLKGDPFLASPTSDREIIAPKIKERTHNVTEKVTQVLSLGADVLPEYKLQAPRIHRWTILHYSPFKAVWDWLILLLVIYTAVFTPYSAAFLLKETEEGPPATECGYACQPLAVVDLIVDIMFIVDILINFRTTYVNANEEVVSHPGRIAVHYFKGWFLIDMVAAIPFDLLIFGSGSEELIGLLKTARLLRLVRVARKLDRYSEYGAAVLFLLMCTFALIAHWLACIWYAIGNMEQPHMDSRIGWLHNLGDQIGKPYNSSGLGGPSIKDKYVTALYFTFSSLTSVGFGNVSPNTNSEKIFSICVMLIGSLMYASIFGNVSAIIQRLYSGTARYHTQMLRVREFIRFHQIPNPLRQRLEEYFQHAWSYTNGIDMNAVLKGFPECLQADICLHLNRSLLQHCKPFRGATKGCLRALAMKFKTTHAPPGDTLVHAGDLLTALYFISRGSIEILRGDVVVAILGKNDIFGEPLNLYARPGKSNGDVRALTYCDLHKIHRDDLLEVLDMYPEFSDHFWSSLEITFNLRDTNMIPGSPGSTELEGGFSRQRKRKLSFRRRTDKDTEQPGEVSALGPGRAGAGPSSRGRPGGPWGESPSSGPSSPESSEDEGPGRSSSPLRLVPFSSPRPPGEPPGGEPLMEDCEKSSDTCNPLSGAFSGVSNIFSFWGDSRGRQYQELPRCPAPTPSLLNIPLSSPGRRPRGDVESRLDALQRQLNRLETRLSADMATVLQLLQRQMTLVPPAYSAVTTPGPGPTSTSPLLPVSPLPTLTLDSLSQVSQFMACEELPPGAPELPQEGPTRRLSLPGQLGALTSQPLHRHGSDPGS

Structure (SMILES) | hERG current change (%, negative = inhibition) at 10uM [%]
CC(C)COc1cccc(C(=O)N(CC(=O)Nc2ccccc2C(F)(F)F)Cc2ccco2)c1 | -0.756
CCCC(=O)Nc1ccc(C(=O)NN2C(=O)c3ccccc3C2=O)cc1 | 1.91
Cc1ccc(SC(C)C(=O)NCc2ccc(F)cc2)cc1 (stereo not shown) | -2.86
Cc1ccc(S(=O)(=O)NCC(=O)OCC(=O)Nc2ncc(Cl)cc2Cl)cc1 | -6
Cc1csc(CN(C)C(=O)CC2C(=O)NCCN2Cc2ccc(F)c(F)c2)n1 (stereo not shown) | 6.02
CC(=O)c1c(C)[nH]c(C(=O)Nc2ccc(C)cn2)c1C | 1.21
CCC(C)N(C(=O)CSc1nnc(-c2ccco2)n1C)C1CCS(=O)(=O)C1 (stereo not shown) | -12.9
COc1ccccc1-c1csc2ncnc(Sc3nnnn3C)c12 | -13.8
CCCC(=O)C1=C(N2CCCCC2)CC(C)(C)C(C(=O)OC)C1=O (stereo not shown) | 28
CCCCCCNS(=O)(=O)c1ccc(Cl)s1 | -12.9
O=c1c2ccccc2[nH]c(=S)n1CCN1CCc2ccccc2C1 | -33.7
COc1ccc(-c2cc(C)no2)cc1S(=O)(=O)NCc1ccc(OC(C)C)cc1 | -16.9
O=C1NC(=O)N(Cc2ccccc2Cl)C(=O)/C1=C/N1CCOCC1 | -9.59
Cc1cc(C)cc(NC(=O)Cn2nnc(C(=O)NCc3cccs3)c2N)c1 | 4.61
CCCCCCCC[n+]1cccc(C(=O)N(CC)CC)c1.[Br-] | 13
COc1ccccc1N(C)S(=O)(=O)c1ccc(C(=O)NC2CCCCCC2)cc1 | -11.4
O=C(Nc1ccc(Br)cc1)c1ccc(F)c(S(=O)(=O)N2CCN(c3ccccn3)CC2)c1 | 20.1
CCSc1nnc(NC(=O)CSc2nncc(=O)n2N)s1 | 20.2
CCOc1ccc(C(=O)N2CCc3cc(OC)c(OC)cc3C2)cc1OCC | 2.45
CC(=O)c1cnc(-c2ccccn2)s1 | 37.8
COc1cccc(CC(=O)Nc2ccc(S(=O)(=O)N3CCOCC3)cc2)c1 | -6.18
Cc1ccc(S(=O)(=O)NCCCN2CCOCC2)c(C)c1 | 11.1
CCN(CC)c1ccc(C(=O)n2cnc3ccccc32)cc1 | -19.6
CCSc1nnc(NC(=O)c2cc(C)nc3ccccc23)s1 | -12.3
O=C(Nc1nc(-c2ccccc2)cs1)c1ccco1 | -47.8
